Values marked as one replicate rest on one cluster of the flow cell; about a third of the high ones do not repeat.
Tested on: ATP
Assay: switch fluorescence ratio, 500 uM ATP over buffer (Cy3 cluster intensity, sum of 5 cycles each) (fold (ratio)); higher = stronger signal-on switching upon ATP binding; sequences stand for … in TCGTCGGCAGCGTCAGATGTGTATAAGAGACAGTTTTTTTTTTTTTTTTTTTTTTTTT…TC
Conditions: aptamer strand: ATP DNA aptamer (quencher-CACCTGGGGGAGTATTGCGGAGGAAGG + anchor), 100 nM annealed; ATP concentration: 500 uM; one replicate
How it was run: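 Five buffer/ATP imaging cycles were run on Cy3-labelled switching-strand clusters on a modified Illumina MiSeq flow-cell, with NaOH stripping and re-annealing between cycles. In each cycle, clusters annealed to 100 nM quencher-labelled ATP aptamer were imaged in selection buffer, then after 15 min with 500 uM ATP at 22 °C. Per cluster, the fluorescence ratio is summed target-cycle over summed buffer-cycle Cy3 intensity, averaged per switch-domain sequence. Only clusters within 100-1000 RFU were kept.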
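Further: ATP exposure 15 min at 22 °C before imaging.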

Sequence	switch fluorescence ratio
TGGGATTTAC	1.02
ATACGAGTAT	1.04
GCATCCAGTG	1.2
AAAGGGTCTA	0.988
TAAAAAGGCA	1
CTAATTAGAA	0.976
ATCGCTATGA	1.04
CTAGGTTAGC	1.06
AGGCCTGAGA	0.973
CTGGAAGTAA	1.11
TAAGGAAGGT	0.988
CCGTCGGAG	1.03
ACGGGTACTT	1.11
TGTATAAGAC	0.962
CGGGCACTTG	0.994
GATTCAAAAG	1.03
AATGGTACAA	1.01
CCATTTTAC	1.31
TATACCATAA	0.985
CGTAGCCCTC	1.17
TCGATCGCTG	0.983
AGGTGGTCTA	1
GAGTAACAAG	1.03
GGTCCGGTCG	0.996
GTTACAATAA	0.971

Sequence	switch fluorescence ratio
CGCAGTTGTA	1
TTGGAGCGCT	0.99
GAGGTCTTGA	0.965
CGGTGACTGT	1.03
CCTTATGACT	0.992
AAGTAGCAAT	3.11
CCCTGACGTG	1.05
CCAGTGACAC	0.994
TGACTAAAAG	0.927
GTGGGGCATG	0.978
AAAAGGAAAA	0.988
TTCAGACCCG	1.03
AGAACTCAGT	1.16
TCAACCCAGG	3.24
GATACCACGG	1.18
ATAATACGTC	1.03
GCAGCGGG	1.01
CTATCCCATG	1.07
ACTGGCATTC	1.31
TAGAGCGATT	1.06
AAAGTACCTG	1.16
GATTTCGCGA	1.08
GCAGTCCTCT	0.975
AAGGACCATT	1.03
GAGATCGAAC	1.05

Sequence	switch fluorescence ratio
CGAGGGCGGT	1.07
AGTAGAATGC	1.07
GGAAGTTCTT	1
GAGGCAAAAA	1.29
GATATCCCAT	0.99
ATGGCTTATA	0.965
CCACATCATG	1.02
TGTGATATTT	1.02
GTATAGCAAA	0.991
GATAACGCGT	1.08
GTAACAAGTG	1.04
TGGACGTAGC	1.07
CGGGAGTTCC	1
TCCGCATAT	3.12
AGGTGCAATG	0.987
CGGACAAGC	1.19
TATCTACGAC	1.12
ATGAAGATAG	1.01
AGTCATATTT	1.03
GGTGCAGTGG	1.04
TTCCGTACGA	1.82
TGCTCTTATG	1.01
GGTAATCCCT	1.08
GCATCAGTG	0.979
TATGATTAGC	0.994

Sequence	switch fluorescence ratio
AGATTCCCAC	0.954
TACTAGGACA	1.08
ATAGAACAG	1.4
TAATCGCCGG	1.04
TCACATTACT	1.37
TGTTAGGACC	1.02
TTAAACCAGT	0.966
AACTCTGCCG	0.909
TTCGGCATTG	0.978
ATCCCCCGGT	2.51
TCATCCCATA	1.72
CCTAGGCGGG	0.989
TCGTGTGTG	0.993
CTATCGGCTT	1.07
TAGGTGGAAC	1.02
AGTGGGACC	1.01
AGGTCGTTGG	0.971
GGTTCCTCA	1.02
GTACGAAGGG	1.11
ATGTTGCATG	0.972
ATCGCTCGGC	1.07
CCAATGTGGC	1.06
AGGATTGACT	1.06
GACTCCCTTG	0.995
TCCAGGGAAC	1.01

Sequence	switch fluorescence ratio
CAGTTTTGTG	0.99
GTGCGATATT	1.05
CTCGATATTT	0.969
TTAAAGTCTA	0.938
TAAACCAGAG	1.17
GACTATTTTA	1.01
CATGCGTCGG	0.97
GGAGCGCAAT	3.19
CCTCGGGGT	1.03
CGGGACCCCA	1.01
AGGTGGCGA	1.01
GCTGAGCGGT	1.05
TTTTAAATCA	1.05
TTAGGGATG	1.06
TAATGTTGAA	1.03
GCGTCTTCGG	1
CATACACGTT	1.04
TGTGTTTCAC	0.999
AGCCCATACC	1.18
TATTGCATGG	1.02
GGTGTTTGAT	0.975
ATACTAAAAG	1.03
GCCATGGCGA	1.01
GAGCCCTTTT	1.02
AATGCTAAAG	1.02

Sequence	switch fluorescence ratio
GCTGTAGCCT	1.02
TTGTGTTCCT	0.987
GTACAAAGAC	0.98
TCTTGGCTG	1.06
AGGGGTTGAT	0.995
TATCTCACCT	1.19
TGGACGTATA	1.32
TGGGCGTCA	1.02
GGAATAGCCC	0.989
GGACTAAGCC	0.946
TCTATTGAGT	0.994
TTACGTCCAT	1.08
ATAGTCCCT	1.04
ACGGTAATGA	1.06
TGGCGTCTAT	1.06
AAATGATAGG	1
TCGATTTAGA	1.01
GGCACTTGTG	1
GCAAGTCACT	1.05
CGCTTTCCTC	1.66
TAAAGTTCGT	1.01
GCGGCAGAGG	1
CCATGCCTTA	0.976
TAAGCTTGAG	1.01
TTATTCAGAC	0.96

Sequence	switch fluorescence ratio
AGCAGATATA	1
AAGAGCCCGA	0.99
TAACGATGCA	1
CAAGCTCGAG	1.01
TGTCTGCACA	1.13
GACACTCGGG	0.984
CATTCTAGGT	0.993
CGGGTTGAAG	0.97
TGTTTCGGCT	0.98
TAAACTGGGT	0.948
TCCAGCAAGG	1.55
TAGAGCACTA	1.08
GGTTAGTTCT	0.988
GTTCTATGTA	1.02
TCTCGTCCAT	1.05
CGAGAGTATC	0.98
ACATTCATTT	0.979
TTCCAACAGC	1.05
GCATCTTACC	1.1
ACGATACGGG	1.45
GAGTCTGCTG	1.08
ACATCTCGGC	0.993
TCCTAGTCTT	0.992
GATATGATGC	1.02
CGTGACCACA	1.02

Sequence	switch fluorescence ratio
TTAGCACGTT	1.01
ATTTTGGTCA	0.984
AGTCGTGCGA	1.01
GCATGAATTG	1.05
GCCGCGGAGG	1.04
GGGGCGCGCT	1.01
AGAAACTTCA	1.24
TGCTCGGTTG	1
GCGAAACGAA	0.979
ACTATTACTG	1.28
GCAGAATTGC	0.98
AGAGATTAGG	0.997
TCTAGACAAA	0.998
AATCGGGTAC	0.997
TCAGATCCAG	0.955
AAAAGGTCCG	0.968
AACCTCGACT	1.14
CCATGGGTCG	0.976
AGGGGATGAC	0.983
AACATGGCGA	1.01
ATTGAGTTGC	0.929
ACTGATTATT	1.02
TGCGCAAGCT	1.02
GTATTTGTTA	0.972
AGAGGATAAA	1.01
